Reference: the supplement of paper PMC3334620
The full ranking holds about 33,000 sequences; the median of “E-score (-0.5 to 0.5)” is about -0.04, and the highest 2% start at about 0.36. The list shows a part of the results.

Target: T1, Hmlalpha2 (UniProt P0CY09)
T1 sequence: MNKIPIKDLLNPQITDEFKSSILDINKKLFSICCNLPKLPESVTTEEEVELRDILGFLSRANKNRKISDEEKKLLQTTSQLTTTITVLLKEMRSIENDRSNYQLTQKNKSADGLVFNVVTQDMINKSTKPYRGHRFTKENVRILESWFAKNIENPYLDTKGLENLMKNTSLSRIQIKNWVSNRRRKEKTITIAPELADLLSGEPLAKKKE
Test: PBM E-score (8-mer binding enrichment) (E-score (-0.5 to 0.5)); higher = stronger / more preferred TF binding; most listed sequences are background and not binding sites
Details: protein concentration: 200 nM; construct: GST-full length
Summary of the method: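 Yeast transcription factors, full-length or as DNA-binding domains, were expressed with a GST tag using PURExpress in vitro transcription/translation. At about 100-200 nM they were applied to universal all-10-mer Agilent arrays, double-stranded by primer extension on fresh or once-stripped slides. Fluorescent anti-GST detected bound protein, and masliner normalised the scans. E-scores for ungapped eight-base words, pooled with reverse complements, came from the Universal PBM Analysis Suite.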

Row | Sequence | PBM E-score
1 | CGCCTATC | -0.118
2 | ATCGCCAA | -0.0673
3 | GGGTCGCA | 0.0571
4 | ACCATGCG | -0.0667
5 | ATCCATTA | 0.0206
6 | AGATTTGC | -0.0168
7 | CGCATCCG | -0.189
8 | ATACATCG | 0.299
9 | AACGCATG | 0.248
10 | ACGACTAG | 0.0412
11 | CGCCCGCC | -0.234
12 | CATGGCGC | -0.0216
13 | CACGACGC | 0.161
14 | ACGGGGCG | -0.141
15 | ATACAATC | 0.0682
16 | AAACTCCA | 0.0637
17 | AGTGCAGA | -0.0862
18 | AACAAGTT | 0.178
19 | AGGTCGTA | 0.0742
20 | ACTCCTCA | -0.205
21 | AGTACAGC | 0.00366
22 | AAAACCGC | -0.0373
23 | AAACCTTC | -0.181
24 | AACGAGCT | 0.0829
25 | CCCGACTC | -0.197

Row | Sequence | PBM E-score
26 | ATGAACTG | 0.108
27 | AGTGGAAG | -0.265
28 | CCTCAGCG | -0.255
29 | CCAGTAGC | -0.157
30 | GATTGTTA | 0.283
31 | CACCCTCC | -0.408
32 | CAAAACAC | 0.295
33 | TAACTACA | 0.378
34 | CTGCGCAA | -0.172
35 | CGATCCGA | -0.256
36 | ACGTAGAG | 0.224
37 | CTGTATGA | -0.203
38 | ACCATTCT | -0.248
39 | CACCCTGA | -0.291
40 | GACAGGAA | 0.0161
41 | ACTCCCAC | -0.352
42 | GATGGCCA | 0.01
43 | TGATACAA | 0.231
44 | GTGCGTTA | 0.273
45 | CGACCTGC | -0.156
46 | GTCAACGA | 0.148
47 | CAGTGTGA | 0.0486
48 | CGATGTGC | -0.251
49 | AGTATCCA | -0.0862
50 | ATCAAGAA | 0.0417

Row | Sequence | PBM E-score
51 | AAGATGAA | -0.0846
52 | ACCCCTAT | -0.208
53 | ATGCCTAG | -0.0854
54 | CAACCTCC | -0.301
55 | TAACGCCA | 0.0809
56 | AGCTACTG | -0.0833
57 | TGATTACA | 0.445
58 | ATTTATGG | 0.0527
59 | GGAACAGA | -0.042
60 | CTGCCTAA | -0.0285
61 | CTCAGGTC | -0.17
62 | CACTTGCC | -0.254
63 | CTCAACCC | -0.224
64 | GCCACCAC | -0.228
65 | CATGACCC | -0.0675
66 | CGTTTTCC | 0.063
67 | TCTTTGCA | 0.0746
68 | AAGCGTGC | 0.124
69 | CATGTAGC | 0.344
70 | CCGCAGAA | -0.108
71 | GCATACGA | -0.0763
72 | ATGACCCG | -0.174
73 | CTCTAACC | -0.198
74 | CAGCTCCG | -0.0954
75 | TAAGCCTA | -0.0559

Row | Sequence | PBM E-score
76 | AACTATAA | 0.092
77 | CTTCTAAC | -0.0816
78 | CGCGCACG | 0.0808
79 | CGCTTTCA | 0.0358
80 | GACATGAA | 0.204
81 | AATACTCG | 0.101
82 | CGTCTGTC | -0.0912
83 | CTACAAGA | 0.178
84 | GATGGACC | -0.149
85 | CGACGCAC | 0.137
86 | GTTCTCAA | 0.122
87 | AGCCTATG | -0.00509
88 | ACTACAAG | 0.267
89 | ACTTCGCG | 0.068
90 | GGACTTCA | -0.241
91 | CGTAGCAG | -0.129
92 | ACTTGGCA | -0.155
93 | GAGTGCCC | -0.304
94 | GGTTCACA | 0.101
95 | TAAGTTGA | 0.21
96 | ACAGTCAC | -0.177
97 | CCCAGAGC | -0.355
98 | GGCATACA | 0.00663
99 | CAGGCGTA | 0.125
100 | ACTTCCCT | -0.0977

Row | Sequence | PBM E-score
101 | ACCAATGG | -0.187
102 | TAAGCGCA | 0.0443
103 | CCCCAGAA | -0.264
104 | CACCCACC | -0.163
105 | ATCCGCGA | -0.185
106 | AAGGTATA | 0.0961
107 | TATGGCCA | -0.0769
108 | CTTAACTC | 0.104
109 | AGTCGACA | 0.184
110 | AAGGAGTA | -0.142
111 | CCTCGAAA | 0.137
112 | CGAACTTA | -0.00348
113 | CGACGTGC | -0.106
114 | ATCGTCTA | 0.00893
115 | AATTGTCG | -0.0873
116 | CCAAGCCG | -0.171
117 | ACCAGCAC | -0.0704
118 | GGCGATGA | -0.168
119 | AGAGCTCT | -0.23
120 | AGCCCGAG | -0.212
121 | CGGCCAGC | -0.166
122 | CTCATCGC | -0.0512
123 | CGTCGATC | 0.144
124 | ACCATAGA | -0.224
125 | GTGCATGA | 0.0341

Row | Sequence | PBM E-score
126 | TACACACA | 0.43
127 | CTAACAAA | 0.151
128 | AACCAGTA | 0.0041
129 | GTAACAAC | 0.305
130 | AAGTCTTA | 0.138
131 | GCTAACAA | 0.164
132 | GGCGTGCA | -0.128
133 | AAACTGAT | -0.00305
134 | CTCAGTTC | -0.111
135 | ATAATGAG | -0.101
136 | CACACCTG | -0.108
137 | GCCTACCA | -0.305
138 | AGGCACGG | -0.263
139 | CCATGCTA | 0.0439
140 | ATCTGTCG | 0.0277
141 | TCTTCAAA | -0.0296
142 | ATCCCTTA | -0.141
143 | AAGACGTG | 0.131
144 | GCATAGTA | 0.0392
145 | AGATTGAT | 0.00281
146 | GCCGTCTA | -0.184
147 | CATGTTGA | 0.477
148 | AAGGAGCG | -0.199
149 | GACGTTAC | 0.248
150 | GTCTGGAA | -0.205

Row | Sequence | PBM E-score
151 | GATATCCC | -0.1
152 | AATTCACC | 0.0859
153 | AAGATGGC | -0.189
154 | ATGATCGA | 0.0342
155 | GATATGCA | -0.0633
156 | CAATGTGC | -0.0156
157 | ACGGATCC | -0.18
158 | AGGGTACC | -0.217
159 | GCGACATA | 0.105
160 | TACCCTAA | -0.0923
161 | GTGCAACA | -0.0669
162 | AGGTTTAT | 0.0762
163 | GTGTGATA | 0.283
164 | CACTTACC | 0.162
165 | TGCCATAA | -0.178
166 | CGGGGAAA | -0.0657
167 | GAAGTAAC | 0.0761
168 | CGATGTTA | 0.353
169 | CAACTTAA | 0.236
170 | CCTGTGCG | -0.0561
171 | AGTAGAAA | 0.124
172 | CGGTCGCC | -0.16
